In the supplement of paper PMC7826260:
This is one part of the list. The data describe in vitro nicking of single-stranded DNA by Rep domains for 1 h at 37 °C with 3 µM enzyme; only the middle of the 90-letter strands is printed. Numbers give uncut DNA relative to the enzyme-free pool, as log2; uncut sequences lie near 0, cut ones below; no hit call is given. Shares of all reads are compared; values above 0 arise when much of the pool is cut.

Tests used:
Experiment in all cases: uncleaved DNA left, log2 of reads against the no-enzyme library (log2 ratio); higher = less cleavage (more negative = more Rep cleavage of the k-mer); sequences stand for … in CTCGTCCG…ACCGGAGA
[1] = test system: T1, Rep nickase domain of Muscovy duck circovirus
T1 sequence (Rep 1-111, printed without the tag): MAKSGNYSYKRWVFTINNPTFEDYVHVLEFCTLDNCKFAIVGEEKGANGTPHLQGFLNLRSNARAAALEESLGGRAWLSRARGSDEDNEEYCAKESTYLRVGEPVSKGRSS
Method: (§1)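 A pool of 90-nt single-stranded DNAs with seven random bases just before the constant AC of the nick site (name = the seven bases) was cut by 3 µM recombinant His6-SUMO-tagged Rep nickase domain (300 nM DNA, 50 mM HEPES pH 8.0, 50 mM NaCl, 1 mM MnCl2, 1 h, 37 °C, three replicates). Uncut DNA was amplified and sequenced.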

[2] = test system: T2, Rep nickase domain of banana bunchy top virus
T2 sequence (Rep 1-94, printed without the tag): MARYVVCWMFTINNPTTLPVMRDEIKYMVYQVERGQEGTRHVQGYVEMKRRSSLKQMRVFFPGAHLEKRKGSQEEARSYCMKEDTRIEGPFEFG
Method: as §1

[3] = test system: T3, Rep nickase domain of cabbage leaf curl virus
T3 sequence (Rep 1-116, printed without the tag): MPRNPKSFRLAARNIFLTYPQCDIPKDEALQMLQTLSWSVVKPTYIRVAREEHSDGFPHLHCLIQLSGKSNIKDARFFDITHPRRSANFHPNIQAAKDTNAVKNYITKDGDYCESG
Method: as §1

[4] = test system: T4, Rep nickase domain of chickpea chlorotic dwarf virus
T4 sequence (Rep 1-124, printed without the tag): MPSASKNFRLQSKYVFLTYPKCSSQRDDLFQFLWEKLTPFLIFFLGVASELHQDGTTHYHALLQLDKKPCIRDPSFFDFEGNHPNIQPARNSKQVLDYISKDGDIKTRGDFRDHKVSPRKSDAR
Method: as §1

[5] = test system: T5, Rep nickase domain of faba bean necrotic yellows virus
T5 sequence (Rep 1-98, printed without the tag): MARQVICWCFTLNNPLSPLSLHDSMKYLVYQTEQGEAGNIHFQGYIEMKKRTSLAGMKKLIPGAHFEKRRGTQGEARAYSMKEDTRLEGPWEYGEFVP
Method: as §1

[6] = test system: T6, Rep nickase domain of maize striate mosaic virus
T6 sequence (Rep 1-117, printed without the tag): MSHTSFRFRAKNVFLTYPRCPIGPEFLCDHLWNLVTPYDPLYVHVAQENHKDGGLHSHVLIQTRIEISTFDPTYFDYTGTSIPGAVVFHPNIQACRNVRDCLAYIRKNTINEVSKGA
Method: as §1

[7] = test system: T7, Rep nickase domain of porcine circovirus 2
T7 sequence (Rep 2-116, printed without the tag): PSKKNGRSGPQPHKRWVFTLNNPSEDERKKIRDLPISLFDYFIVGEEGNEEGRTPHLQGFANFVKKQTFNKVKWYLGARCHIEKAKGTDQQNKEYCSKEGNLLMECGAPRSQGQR
Method: as §1

[8] = test system: T8, Rep nickase domain of tomato yellow leaf curl virus
T8 sequence (Rep 1-136, printed without the tag): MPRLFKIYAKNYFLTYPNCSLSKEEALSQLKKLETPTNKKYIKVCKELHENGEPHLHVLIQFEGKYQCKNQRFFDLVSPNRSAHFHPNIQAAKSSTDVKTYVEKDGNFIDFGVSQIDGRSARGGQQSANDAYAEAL
Method: as §1

[9] = test system: T9, Rep nickase domain of wheat dwarf virus
T9 sequence (Rep 1-137, printed without the tag): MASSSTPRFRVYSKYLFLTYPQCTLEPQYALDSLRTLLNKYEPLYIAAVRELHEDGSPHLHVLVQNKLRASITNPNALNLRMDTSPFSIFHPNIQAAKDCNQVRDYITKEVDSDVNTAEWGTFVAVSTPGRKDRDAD
Method: as §1

Row | Sequence | uncleaved DNA left (log2) [1] | uncleaved DNA left (log2) [2] | uncleaved DNA left (log2) [3] | uncleaved DNA left (log2) [4] | uncleaved DNA left (log2) [5] | uncleaved DNA left (log2) [6] | uncleaved DNA left (log2) [7] | uncleaved DNA left (log2) [8] | uncleaved DNA left (log2) [9]
1 | TAATTCA | -1.67 | 0.139 | -3.14 | -3 | 0.0441 | -2.78 | -2.12 | -0.00657 | -3.31
2 | AACATAG | 0.186 | 0.143 | -0.605 | -0.0852 | 0.184 | -0.926 | 0.331 | 0.195 | 0.0462
3 | TGAACAT | -0.00904 | -0.0111 | 0.743 | 1.69 | -0.0202 | 1.98 | 0.229 | 0.103 | 0.0755
4 | CGCTCCA | 0.0425 | -0.0116 | 0.0852 | -0.472 | 0.0625 | 0.0827 | -0.0917 | -0.029 | 0.0352
5 | TCGGTTA | 0.207 | 0.0754 | 0.384 | 0.0294 | 0.281 | 0.612 | 0.0863 | 0.145 | 0.297
6 | TATAACA | 0.0862 | -0.00166 | -0.464 | -2.69 | -0.0528 | -0.377 | -0.132 | -0.000199 | -0.0868
7 | AATCGCT | 0.0193 | 0.0305 | -0.469 | -1.76 | 0.0545 | -1.04 | -1.19 | 0.0572 | -0.071
8 | TTCTAAT | -2.97 | -0.159 | -0.156 | -0.927 | 0.17 | -0.14 | -3.5 | 0.0883 | 0.0628
9 | GCACGTT | -0.0706 | -0.0679 | -0.17 | -1.27 | 0.0196 | -0.206 | -0.21 | -0.187 | -0.314
10 | ATGGATT | 0.144 | 0.185 | 0.398 | 1.47 | 0.209 | 1.76 | 0.242 | 0.00186 | 0.219
11 | GTACTCT | -0.0723 | -0.018 | 0.29 | 0.558 | -0.0779 | 1.7 | -0.0128 | 0.0246 | -0.0903
12 | TGGAACG | 0.0086 | -0.107 | -0.365 | -0.648 | 0.0109 | -0.858 | 0.201 | -0.0282 | 0.00821
13 | GCGGTAA | -0.0988 | 0.135 | 0.345 | 0.794 | -0.0827 | 1.11 | 0.093 | -0.0355 | 0.051
14 | AACTCTC | -0.34 | -0.156 | -0.131 | -0.594 | 0.00426 | -0.513 | -3.15 | -0.102 | -0.00155
15 | GGCTGAT | -0.142 | -0.0321 | 0.346 | 1.14 | -0.029 | 1.51 | -0.663 | -0.0381 | 0.0658
16 | GAGTCGT | -0.00784 | -0.143 | -0.0227 | 0.0843 | -0.0271 | -0.53 | -2.74 | 0.123 | 0.102
17 | TCCTAGC | 0.177 | 0.0258 | -0.138 | -0.379 | 0.0696 | -0.817 | 0.111 | -0.068 | -0.0522
18 | CCCAGGT | 0.00317 | 0.059 | 0.333 | 1.23 | -0.137 | 1.44 | 0.282 | -0.105 | 0.141
19 | TCGAAAG | 0.0238 | -0.0212 | -0.358 | -0.369 | 0.0367 | -1.13 | 0.153 | 0.00926 | -0.088
20 | GCATACC | 0.0297 | -0.00398 | 0.00557 | -0.232 | -0.0228 | 0.0188 | -0.434 | -0.0679 | 0.0908
21 | AGTAACT | 0.136 | 0.0326 | -0.0967 | -1.54 | -0.13 | 0.632 | -3.28 | 0.126 | 0.184
22 | GCAAAAT | -0.021 | 0.108 | 0.163 | 0.157 | 0.171 | 0.0716 | 0.102 | 0.0525 | 0.175
23 | GTATCCA | 0.00671 | 0.0603 | 0.323 | 0.798 | 0.0395 | 1.61 | 0.0194 | 0.089 | 0.104
24 | AGCTACG | -0.0263 | 0.0689 | -0.13 | -0.0424 | -0.0424 | -0.204 | 0.151 | -0.0377 | 0.0284
25 | TCCGTAC | 0.0425 | 0.0182 | 0.216 | -0.314 | 0.00866 | 0.000705 | 0.056 | 0.0117 | 0.0676
26 | AGTCGTG | -0.00242 | 0.00362 | -0.18 | -0.196 | -0.0513 | -0.536 | 0.236 | 0.0645 | 0.024
27 | AAAATAG | 0.0777 | -0.059 | -0.712 | -0.427 | 0.135 | -1.23 | 0.185 | 0.11 | -0.0231
28 | ACTTATT | -3.63 | -3.52 | -0.776 | -3.16 | -0.201 | -0.916 | -3.48 | -0.125 | -0.528
29 | CCGGGAA | 0.0861 | -0.0774 | 0.492 | 1.01 | 0.032 | 1.68 | 0.103 | -0.0908 | -0.00101
30 | GCCGTAA | -0.0855 | -0.0814 | 0.0331 | 0.303 | -0.138 | -0.116 | -0.0866 | -0.105 | -0.149
